# According to the supplement of paper PMC10441789:
# The list shows a part of the results. Antibody binding of pooled human sera (four to six donors per pool; dilution not stated) to peptides of the Trypanosoma cruzi antigen TSSA on microarrays. Quantile-normalised fluorescence in arbitrary units, mean of duplicate arrays; higher = more binding. No active / inactive call. The uninfected pools are read here as the healthy donors of the same country. The strongest signals lie near the top of the scale (about 60,000).
# Experiments:
# Experiment in all cases: antibody binding signal (normalised fluorescence) (arbitrary fluorescence units); higher = stronger serum antibody binding to peptide
# [1] = system: pooled sera of chronic Chagas disease patients, Argentina
# Experimental: (§1)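 Microarray of overlapping 15-residue peptides of the four Trypanosoma cruzi TSSA reference variants and 8- to 13-residue peptides of TSSAII 24-62, probed with one serum pool per country.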
# [2] = system: pooled sera of chronic Chagas disease patients, Bolivia
# Experimental: as §1
# [3] = system: pooled sera of chronic Chagas disease patients, Brazil
# Experimental: as §1
# [4] = system: pooled sera of chronic Chagas disease patients, Colombia
# Experimental: as §1
# [5] = system: pooled sera of chronic Chagas disease patients, Mexico
# Experimental: as §1
# [6] = system: pooled sera of chronic Chagas disease patients, USA
# Experimental: as §1
# [7] = system: pooled sera of uninfected people, Argentina
# Experimental: as §1
# [8] = system: pooled sera of uninfected people, Bolivia
# Experimental: as §1
# [9] = system: pooled sera of uninfected people, Colombia
# Experimental: as §1
# [10] = system: pooled sera of uninfected people, Mexico
# Experimental: as §1
# [11] = system: pooled sera of uninfected people, USA
# Experimental: as §1
Sequence,antibody binding signal [1],antibody binding signal [2],antibody binding signal [3],antibody binding signal [4],antibody binding signal [5],antibody binding signal [6],antibody binding signal [7],antibody binding signal [8],antibody binding signal [9],antibody binding signal [10],antibody binding signal [11]
TPPSGTDKKTAAGEA,10100,16000,29300,3940,21600,1770,229,161,206,848,163
PATGEAPSQ,41800,48700,44800,133,129,24700,723,132,91.8,101,96.7
GSTSSTPPSGTEN,44100,43200,29300,185,330,314,397,198,106,135,171
STPPGTDKKTAAGGT,4780,2530,2820,21000,8250,28700,204,103,199,1070,181
GGSTSSTPPSGTENK,51100,43000,48900,435,6870,28200,2880,550,623,810,453
TSSTPPSGTENK,51400,50900,51300,235,6740,29900,2490,402,654,453,440
KPATGEAP,42600,42200,47400,163,240,34800,916,877,358,206,208
ATGEAPSQPG,19100,31000,39100,829,333,14200,203,339,86.6,145,105
KKTAAGGTPSPSGAS,263,218,326,4250,316,1790,215,111,147,84.2,238
ACTTANGGSTSSTPP,327,300,704,232,312,187,193,239,308,214,485
